# Test results: PubChem BioAssay AID686970 (National Center for Advancing Translational Sciences (NCATS), 2013)
# Among all 360,000 compounds or so, about 6,000 (1.7%) were called active. This list was built around the results that the source calls inconclusive (neither active nor inactive); the mix of calls is not that of the screen. Calls come from the whole dose curve; as a rule, active = well fitted cell-killing curve with a large enough effect; inconclusive = small, poorly fitted or top-dose-only effect, or effect the other way; inactive = flat fitted curve, though single readings scatter. Potencies of inconclusive entries are left out as doubtful fits.
# Assay: qHTS for induction of synthetic lethality in tumor cells producing 2HG: qHTS for the HT-1080-NT fibrosarcoma cell line;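 note: NT is the 2HG producing partner of a matched IDH1 knockdown line; nearly all actives have a fitted effect of over 55% in size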;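 for activity, negative = less viability: 0% = DMSO-treated cells and -100% = media-only wells without cells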
# Details: HT-1080-NT fibrosarcoma viability, CellTiter-Glo ATP luminescence, 48 h; activity, negative = less viability: at 46.1 µM (top of the series) unless noted
# Summary of the method: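 Toxicity toward the 2HG-producing NT line was scored as %Activity, normalised to DMSO and no-cell wells, from CellTiter-Glo luminescence after 48 hours' treatment.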
# Potency is the fitted concentration of half-maximal effect; tags give direction and shape of the fitted curve.
SMILES,Potency,"activity, negative = less viability"
CCN(CC)Cc1cc(CCNC(=O)c2ccc(Cl)cc2)ccc1O,"inconclusive [cytotoxic, partial curve, poor fit]",
CCCCCC(=O)Nc1ccc2ccccc2c1,inactive,
COc1ccc(C(=O)Cn2nc(CNc3ccc(Br)cc3)[n+]3c2CCCCC3)cc1,"inconclusive [cytotoxic, partial curve]",
CCOc1ccc2ccccc2c1CNc1nnnn1CC,inactive,
CNC(=S)N/N=C/c1cccc(OCc2ccccc2F)c1,"inconclusive [cytotoxic, single point]",
FC(F)(F)c1nc2nc(Cl)c(Cl)nc2[nH]1,inactive,
CC(=O)N1c2ccccc2C(CBr)=CC1(C)C,inactive,
CCC(=O)c1ccc2c(c1)N(CCCN(C)C)c1ccccc1S2,active: 23.1 µM,
O=C(Nc1ccc([N+](=O)[O-])cc1)c1nc[nH]c1C(=O)NC1CCCCC1,inactive,
CCN(CC)CCNC(=O)c1ccc(N2CCCCC2)c(NS(=O)(=O)c2ccc(C)cc2)c1,"inconclusive [cytotoxic, partial curve]",
O=[N+]([O-])c1ccc(-c2ccc(/C=N/Nc3nc(NCc4ccccc4)nc(N4CCOCC4)n3)o2)cc1,active: 18.4 µM,
COC(=O)c1ccc(NC(=O)COc2ccc(C3C(C#N)=C(N)Oc4c3ccc3ccccc43)cc2OC)cc1 (stereo unspecified),"inconclusive [cytotoxic, partial curve]",
O=C(OC1CCCCC1)c1ccc(NC(=O)C2CCCCC2)cc1,"inconclusive [cytotoxic, partial curve]",
COc1cccc(-c2sc3ccccc3c2-c2ccc(OCCN(C)C)cc2)c1,"inconclusive [cytotoxic, single point]",
O=C(CSc1nc2ccccc2c(=O)n1CCCN1CCOCC1)c1c[nH]c2ccccc12,"inconclusive [cytotoxic, single point]",
O=C(Nc1nc2c(s1)CCCC2)c1ccc2ncsc2c1,,inconclusive: 29.7%
Cc1oc2c(c1C(=O)N1CCOCC1)C(=O)c1ccccc1C2=O,"inconclusive [cytotoxic, partial curve]",
CC(=NNC(=S)Nc1ccccc1)c1ccccn1,"inconclusive [cytotoxic, full curve]",
CC(C)CCN(C(=O)Cc1ccc(Cl)c(Cl)c1)c1c(N)n(Cc2ccccc2)c(=O)[nH]c1=O,,inconclusive: -11.6% [cytotoxic]
O=C(CN(Cc1ccccc1)C(=O)CCl)c1cccc(Br)c1,active: 20.6 µM,
COc1ccccc1NC(=S)N(CCN(C)C)C(C)c1ccncc1 (stereo unspecified),"inconclusive [rising, single point]",
CCOC(=O)C1(CCOc2ccccc2)CCN(Cc2cc(OC)c3c(c2)OCO3)CC1,active: 18.4 µM,
O=C(CSc1nc(-c2ccccc2)c(-c2ccccc2)[nH]1)Nc1ccc2c(c1)OCO2,"inconclusive [cytotoxic, single point]",

SMILES,Potency,"activity, negative = less viability"
NCCC(=O)N1c2ccccc2Sc2ccc(Cl)cc21,inactive,
CC[N+](CC)(CC#Cc1ccccc1)CC#Cc1ccccc1,"inconclusive [cytotoxic, single point]",
Cc1ccc(C(=O)N(CC(C)C)c2nc3ccccc3s2)o1,"inconclusive [cytotoxic, single point]",
Cc1cc(C)nc(SCC(=O)Nc2ncc(Cc3ccc(Cl)c(Cl)c3)s2)n1,"inconclusive [cytotoxic, single point]",
CCC[C@@H](CN[C@@H](CNC)[C@H](C)CC)NCC1CCC(C(C)(C)C)CC1 (stereo partly specified),"inconclusive [cytotoxic, single point]",
COc1cc(NC(=O)c2c3c(nc4ccccc24)CCC3)cc(OC)c1,"inconclusive [cytotoxic, single point]",
NC1(C(=O)O)CSSC1,"inconclusive [cytotoxic, single point]",
CC1=CC(C)(C)N2C(=O)C3(C(C#N)=C(N)Oc4cc(O)ccc43)c3c(C)c(C)cc1c32 (stereo unspecified),"inconclusive [cytotoxic, single point]",
CCOc1ccc(/C=N/NC(=O)c2cc(-c3ccco3)nc3ccccc23)cc1,"inconclusive [cytotoxic, single point]",
O=C1NC2(CCC3(CC2)OCCO3)NN1c1ccc(Cl)cc1,"inconclusive [cytotoxic, full curve]",
Cn1c(/C=C/c2cccc(Br)c2)nc2ccccc2c1=O,"inconclusive [cytotoxic, single point]",
COc1ccc(CCN2CC(C(=O)NCCCn3nc(C)cc3C)CCC2=O)cc1 (stereo unspecified),inactive,
CCOC(=O)c1ccc(Nc2nc(C)cc(C)c2C#N)cc1,"inconclusive [cytotoxic, single point]",
Cc1ccc(S(=O)(=O)N(CC(=O)Nc2ccccc2C(=O)O)c2cccc(Cl)c2C)cc1,"inconclusive [cytotoxic, single point]",
NNC(=O)C(=O)Nc1ccc(O)cc1,active: 7.31 µM,
CC(C)c1ccc(CN2CCN(C(=O)CCl)CC2)cc1,"inconclusive [cytotoxic, single point]",
COc1cccc(NC(=O)Nc2cc(NC(=O)Nc3cccc(OC)c3)c(C)nc2C)c1,inactive,
CCc1nc2ccc(C(=O)N(C)Cc3ccco3)cn2c1N(CC)Cc1cccc(Br)c1,"inconclusive [cytotoxic, single point]",
CCOC(=O)C1=C(C)NC2=C(C(=O)C(C(=O)OCC)C(c3ccco3)C2)C1c1ccccn1 (stereo unspecified),inactive,
COc1ccc(C(=O)Oc2cccc(/C=N/NC(N)=S)c2)cc1,inactive,
CC(C)c1ccccc1OCCCCCNCCO,"inconclusive [cytotoxic, single point]",
COc1ccc(OC)c2nc3c(C(=O)NCCN(C)C)cccc3nc12,"inconclusive [cytotoxic, single point]",
C=CC[C@@H](CC(=O)N(CCO)Cc1ccccc1)C(=O)N[C@@H](COC(=O)[C@@H](CC=C)Cc1ccc(F)cc1)Cc1c[nH]c2ccccc12,"inconclusive [cytotoxic, single point]",
